We go through 27 molecules from the supplement of paper PMC6828730.

In experiment [1] the test system is hiPSC-derived cardiomyocytes. As to the kind of experiment: time to death of most cells in well after compound addition (days); higher = less cardiotoxic. As to conditions: screen: 1; 10 µM.
Experiment [2] concerns hiPSC-derived cardiomyocytes. As to the kind of experiment: time to death of most cells in well after compound addition (days); higher = less cardiotoxic; extreme values may be limits of the assay. The following applies: 10 µM.

Where a name gives a salt, the structure may show the parent alone. Some of the results follow. Single values are uncertain, as repeats are few or missing.

Regarding `O=C(O)c1ccc(-c2c[nH]c3ncc(-c4ccccc4)cc23)cc1C1CCCC1`, the “time to death of most cells in well” value in experiment [1], in experiment [2] (screen: 2), in experiment [2] (screen: 3) and in experiment [2] (screen: 4) was > 7 in each case.

Take `COc1ccc2cc(-c3nc(-c4ccc([S+](C)[O-])cc4)[nH]c3-c3ccncc3)ccc2c1` (stereo not drawn) [Tie2 kinase inhibitor]: the “time to death of most cells in well” value in experiment [1], in experiment [2] (screen: 2), in experiment [2] (screen: 3) and in experiment [2] (screen: 4) was > 7 in each case.

As to `CN1CCN(CCOc2cc(OC3CCOCC3)c3c(Nc4c(Cl)ccc5c4OCO5)ncnc3c2)CC1` [Saracatinib (AZD0530)], the “time to death of most cells in well” value in experiment [1], in experiment [2] (screen: 2), in experiment [2] (screen: 3) and in experiment [2] (screen: 4) was > 7 throughout.

For the molecule `CCCNC(=O)c1cn2ncnc(Nc3cc(C(=O)NC4CC4)ccc3C)c2c1C`, the “time to death of most cells in well” value in experiment [1], in experiment [2] (screen: 2), in experiment [2] (screen: 3) and in experiment [2] (screen: 4) was > 7 each time.

With `C[C@]1(O)C[C@@H](c2nc(-c3ccc4ccc(-c5ccccc5)nc4c3)c3c(N)nccn32)C1` [Linsitinib (OSI-906)], the “time to death of most cells in well” value in experiment [1], in experiment [2] (screen: 2), in experiment [2] (screen: 3) and in experiment [2] (screen: 4) was > 7 in each case.

Consider `Cn1cc(-c2[nH]c3cc(NC(=O)[C@H](N)C4CCCCC4)cc4c3c2C=NNC4=O)cn1`, for which the “time to death of most cells in well” value in experiment [1] was > 7; in experiment [2] (screen: 2), > 7; in experiment [2] (screen: 3), > 7; in experiment [2] (screen: 4), 6.5.

With `Cc1ccc(-c2nn(C(C)(C)C)c3ncnc(N)c23)cc1`, the “time to death of most cells in well” value in experiment [1], in experiment [2] (screen: 2), in experiment [2] (screen: 3) and in experiment [2] (screen: 4) was > 7 throughout.

As for `COCCOc1cnc2ccn([C@H](C)c3nnc4c(F)cc(-c5cnn(C)c5)cn34)c(=O)c2c1`, the “time to death of most cells in well” value in experiment [1] is 2.5; in experiment [2] (screen: 2) it was 2.5; in experiment [2] (screen: 3) it was > 7; in experiment [2] (screen: 4) it was > 7.

With `Nc1ccc(C(=O)Nc2cccc(-c3nc(N4CCOCC4)c4oc5ncccc5c4n3)c2)cn1`, the “time to death of most cells in well” value in experiment [1], in experiment [2] (screen: 2), in experiment [2] (screen: 3) and in experiment [2] (screen: 4) was > 7 each time.

Turning to `C=CC(=O)Nc1cc(Nc2nccc(-c3cn(C)c4ccccc34)n2)c(OC)cc1N(C)CCN(C)C` [Osimertinib (AZD9291)], the “time to death of most cells in well” value in experiment [1] is 2.5; in experiment [2] (screen: 2) it was 3.5; in experiment [2] (screen: 3), 3.5; in experiment [2] (screen: 4), 3.5.

Take `O=C(Nc1c[nH]nc1-c1nc2ccc(CN3CCOCC3)cc2[nH]1)NC1CC1`: the “time to death of most cells in well” value is 4.5 in experiment [1], 3 in experiment [2] (screen: 2), 5 in experiment [2] (screen: 3) and > 7 in experiment [2] (screen: 4).

Turning to `O=C1NC(=O)C(=Cc2ccc(-c3ccc(F)cc3)o2)S1` (stereo in doubt), the “time to death of most cells in well” value in experiment [1], in experiment [2] (screen: 2), in experiment [2] (screen: 3) and in experiment [2] (screen: 4) was > 7 each time.

As to `CC(=O)Nc1cccc(-n2c(=O)n(C3CC3)c(=O)c3c(Nc4ccc(I)cc4F)n(C)c(=O)c(C)c32)c1`, the “time to death of most cells in well” value in experiment [1] is > 7; in experiment [2] (screen: 2) it was 5; in experiment [2] (screen: 3), > 7; in experiment [2] (screen: 4), > 7.

As to `Cc1nc(Nc2n[nH]c3c2CN(C(=O)N[C@H](CN(C)C)c2ccccc2)C3(C)C)c2sccc2n1`, the “time to death of most cells in well” value stood at 2 in experiment [1], 1 in experiment [2] (screen: 2), 5.5 in experiment [2] (screen: 3) and 1 in experiment [2] (screen: 4).

With `N#CC1(c2ccc(NC(=O)c3cccnc3NCc3ccncc3)cc2)CCCC1` [Apatinib], the “time to death of most cells in well” value in experiment [1] was > 7; in experiment [2] (screen: 2), 6.5; in experiment [2] (screen: 3), > 7; in experiment [2] (screen: 4), > 7.

As to `COc1cc2nccc(Oc3ccc(NC(=O)Nc4ccc(F)cc4F)c(F)c3)c2cc1OC`, the “time to death of most cells in well” value in experiment [1] was > 7; in experiment [2] (screen: 2) it was 6; in experiment [2] (screen: 3), > 7; in experiment [2] (screen: 4), > 7.

As to `COc1ccc2c(Oc3ccc(NC(=O)c4c(C)n(CC(C)(C)O)n(-c5ccccc5)c4=O)nc3)ccnc2c1`, the “time to death of most cells in well” value in experiment [1], in experiment [2] (screen: 2), in experiment [2] (screen: 3) and in experiment [2] (screen: 4) was > 7 throughout.

Consider `CC(C)(C)c1cc(C=C(C#N)C#N)cc(C(C)(C)C)c1O` [Tyrphostin 9], for which the “time to death of most cells in well” value in experiment [1] was 5; in experiment [2] (screen: 2), 0.5; in experiment [2] (screen: 3) it was 0; in experiment [2] (screen: 4), > 7.

In the case of `O=S(=O)(c1cccc2cnccc12)N1CCCNCC1` [Fasudil (HA-1077) HCl], the “time to death of most cells in well” value in experiment [1] was > 7; in experiment [2] (screen: 2), 6; in experiment [2] (screen: 3), > 7; in experiment [2] (screen: 4), > 7.

Turning to `Cc1cc(C(=O)NOCCO)c(Nc2ccc(I)cc2F)n(C)c1=O`, the “time to death of most cells in well” value in experiment [1], in experiment [2] (screen: 2), in experiment [2] (screen: 3) and in experiment [2] (screen: 4) was > 7 in each case.

With `CNC(=O)c1ccccc1Sc1ccc2c(/C=C/c3ccccn3)n[nH]c2c1` [Axitinib], the “time to death of most cells in well” value in experiment [1], in experiment [2] (screen: 2), in experiment [2] (screen: 3) and in experiment [2] (screen: 4) was > 7 throughout.

Take `O=C1c2ccccc2-c2n[nH]c3cccc1c23`: the “time to death of most cells in well” value was 6 in experiment [1], > 7 in experiment [2] (screen: 2), > 7 in experiment [2] (screen: 3) and > 7 in experiment [2] (screen: 4).

As for `CNC(=O)c1nn(C)c2c1C(C)(C)Cc1cnc(Nc3ccc(N4CCN(C)CC4)cc3)nc1-2`, the “time to death of most cells in well” value is 6 in experiment [1], 5 in experiment [2] (screen: 2), 6 in experiment [2] (screen: 3) and > 7 in experiment [2] (screen: 4).

In the case of `CN1CCN(c2ccc3nc(-c4c(N)c5c(F)cccc5[nH]c4=O)[nH]c3c2)CC1` [Dovitinib (TKI-258) Dilactic Acid], the “time to death of most cells in well” value was 1.5 in experiment [1], 3.5 in experiment [2] (screen: 2), > 7 in experiment [2] (screen: 3) and 2 in experiment [2] (screen: 4).

Take `COc1cc(F)c(F)c(Nc2ccc(I)cc2F)c1NS(=O)(=O)C1(C[C@H](O)CO)CC1` [Refametinib (RDEA119, Bay 86-9766)]: the “time to death of most cells in well” value in experiment [1], in experiment [2] (screen: 2), in experiment [2] (screen: 3) and in experiment [2] (screen: 4) was > 7 throughout.

As for `C=CC(=O)N1CCCC(n2c(=O)n(-c3ccc(Oc4ccccc4)cc3)c3c(N)ncnc32)C1` (stereo not drawn) [ONO-4059 analogue], the “time to death of most cells in well” value in experiment [1] was 5; in experiment [2] (screen: 2), 3; in experiment [2] (screen: 3) it was > 7; in experiment [2] (screen: 4), > 7.

On to `CN1CCN(S(=O)(=O)c2ccc(-c3cnc(N)c(C(=O)Nc4cccnc4)n3)cc2)CC1`, for which the “time to death of most cells in well” value in experiment [1] is 2; in experiment [2] (screen: 2), 1.5; in experiment [2] (screen: 3), 3; in experiment [2] (screen: 4), > 7.
